Reference: PubChem BioAssay (NCI)
“And” between values parts separate entries of the source, which are not always exact repeats. Equal entries are not always repeated.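 Compound exposure: 48 hours, 5 concentrations, 96-well plates. GI50: concentration for 50% inhibition of growth. TGI denotes the concentration required for complete inhibition of growth.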

These compounds were tested on NCI-H322M lung (assay: NCI tumour cell line growth inhibition, 48 h).
Compound `COc1cc(C2c3cc4c(cc3[C@@H](Nc3ccc(N)cc3)C3COC(=O)[C@H]23)OCO4)cc(OC)c1O` (some centres undefined) has a TGI of 53 µM.
`O=C(O)CC(O)(C(=O)O)C(O)C(=O)O` (centres undefined) was tested, and the TGI was > 1000 µM.
`COc1ccccc1N=C1SCCN1C(=S)Nc1ccc(S(=O)(=O)/N=C/N(C)C)cc1` was tested, and the TGI was > 100 µM.
`CC1(C)C2CCC(N)(C2)C1O` (centres undefined) was tested, and the TGI was > 100 µM.
`CCOC(=O)/N=c1/nc(N(C)C)ss1` was tested, and the TGI was > 100 µM.
For `CCc1nc(-n2c(-c3ccccc3)nc3ccccc3c2=O)nc(N)c1-c1ccc(Cl)cc1`, the GI50 was 37.8 µM and the TGI was > 100 µM.
Work on `CCCCNC(=S)Nc1nc(C(=O)NNC(=O)c2ccccc2)cs1` yielded a TGI of 40.9 µM.
With `COC(=O)Cc1nc2ccccc2o1` the TGI was > 100 µM.
With `C#CCOC(=O)C(N)CCSC` (centres undefined) the TGI was > 100 µM.
For `CC1(C)c2ccccc2C(O)C12CCC(=O)CC2` (centres undefined), the TGI was > 100 µM.
With `Nc1nc(N)c(-c2ccccc2)c(CCC(=O)Nc2ccc(Cl)cc2)n1` the TGI was > 100 µM.
For `C=CCN1CCC2(CC1)NC(=O)c1ccccc1O2`, the TGI was > 100 µM.
`Cc1nc2c(=O)[nH]c3ccc(Cl)cc3c2o1` was tested, and the TGI was > 100 µM.
With `OC1c2ccccc2C(O)C2OC12` (centres undefined) the TGI was > 100 µM.
With `C=CC1(c2ccc(OC)cc2)OCCCO1` the TGI was > 100 µM.
For `CC(C)c1cccc(C(C)C)c1OS(=O)(=O)NC(=O)OC(C(F)(F)F)C(F)(F)F`, the TGI was > 100 µM.
`COC(=O)[C@H](CCSC)NC(=O)c1ccc(CNC(=O)/C(C)=C/c2ccccc2)cc1` gave a TGI of 63.3 µM.
`CN(C)CCNc1nc(-c2cccs2)cc(-c2cccs2)n1` showed a TGI of 26 µM.
With `CC(C)N(C(C)C)P(OCCC#N)OC1CC(n2cnc3c(=O)[nH]cnc32)OC1COC(=O)NCCCCCCNC(=O)OC(C)(C)c1ccc(-c2ccccc2)cc1` (centres undefined) the TGI was > 100 µM.
With `CC(=O)N(CN1C(=O)CCC1C(=O)O)c1ccccc1Cl` (centres undefined) the TGI was > 100 µM.
Compound `O=[N+]([O-])c1cc(F)c2cccnc2c1O` has a GI50 of 4.25 µM and a TGI of 46.5 µM.
In the case of `OCC(O)C(O)C(O)C(O)/C=N/Nc1nc(O)c(/C=C2\C=Nc3ccccc32)[nH]1` (centres undefined), the TGI is reported as > 100 µM.
`Nc1ccc(-c2nc3ccccc3s2)cc1Br` was tested, and the TGI was > 100 µM.
In the case of `O=C(NN=C1CCCCC1)NN=C1CCCCC1`, the TGI is reported as > 100 µM.
In the case of `O=S(=O)(/N=C(\NO)Nc1ccc(Cl)cc1)c1ccc(-c2ccccn2)s1`, the TGI is reported as > 100 µM.
With `CCN(CC)CCC(=O)c1ccc(Oc2ccc(F)cc2)cc1` the TGI was > 100 µM.
In the case of `c1ccc(C2[C@@H]3CCCc4ccccc4C3=NN2c2ccccc2)cc1` (some centres undefined), the TGI is reported as > 100 µM.
For `C/C=C1\CC(C(=O)OCC)CCCCCCCCCCC1=O` (centres undefined), the TGI was > 100 µM.
`CC(C)(C)C(=O)OCc1nc2cc3c(cc2c(=O)[nH]1)CCC3=O` was tested, and the GI50 was > 100 µM and the TGI was > 100 µM.
With `O=C(O)C(=O)CBr` the GI50 was > 100 µM and the TGI was > 100 µM.
`CC1CN=C(c2ccc(COc3ccc(C4=NCC(C)N4)cc3)cc2)N1` (centres undefined) was tested, and the TGI was > 100 µM.
For `Cc1cc(S(=O)(=O)Nc2nc3cc(Cl)ccc3o2)c(SCc2ccccc2)cc1Cl`, the GI50 was 16.7 µM and the TGI was 36.1 µM.
For `COc1ccc(C2=NOP(c3ccccc3)(c3ccccc3)(c3ccccc3)C2)cc1`, the TGI was > 100 µM.
In the case of `CCOC(=O)CC[C@H](N)C(=O)N[C@H](Cc1ccc(N(CCCl)CCCl)cc1)C(=O)OCC`, the TGI is reported as > 56.9 µM.
In the case of `C=C1c2nc3ccccc3n2C=C(c2ccc(OC)cc2)N1c1ccc(OCCN2CCOCC2)cc1`, the TGI is reported as > 100 µM.
With `Cc1cc(O)c(C(c2ccncc2)c2c(O)cc(C)[nH]c2=O)c(=O)[nH]1` the TGI was > 100 µM.
With `CC1(C)CC2C(C1=O)C1(C)CCCC2(C)C1=O` (centres undefined) the TGI was > 100 µM.
In the case of `Nc1c(C(=O)Nc2cccc(Br)c2)sc2nc3c(cc12)C(O)CCC3` (centres undefined), the GI50 is reported as 0.597 µM and the TGI is reported as > 100 µM.
`C=CC(Br)(CBr)CCC(Br)C(C)C` (centres undefined) gave a TGI of 29.1 µM.
For `COc1c(N2CCN(Cn3c(O)c(N=NC(=O)c4ccncc4)c4cc(F)ccc43)C(C)C2)c(F)cc2c(=O)c(C(=O)O)cn(C3CC3)c12` (centres undefined), the GI50 was 44.3 µM and the TGI was > 50 µM.
With `O=C1c2ccn(CCCCN3CCC(O)CC3)c2C(=O)c2c1c(O)c1ccccc1c2O` the GI50 was 4.94 µM and the TGI was 12.5 µM.
In the case of `CCC1(O)CC(OC2CC(N(C)C)C(OC3CC(O)C(OC4CCC(=O)C(C)O4)C(C)O3)C(C)O2)c2c(O)c3c(c(O)c2C1C(=O)OC)C(=O)c1cccc(O)c1C3=O` (centres undefined), the TGI is reported as 1.73 µM.
In the case of `COc1cc(-c2nn(-c3ccc(NC(=O)c4cc(Cl)cc(Cl)c4)cc3)cc2-c2ccncc2)ccc1Cl`, the GI50 is reported as > 100 µM and the TGI is reported as > 100 µM.
In the case of `Cn1ccnc1C[N-]Cc1nccn1C.O=[N+]([O-])[O-].O=[N+]([O-])[O-].[Cu+2]`, the GI50 is reported as > 100 µM and the TGI is reported as > 100 µM.
For `CC[C@H](NC(=O)[C@H](CS(=O)(=O)CC1CC1)N[C@@H](c1ccc(F)cc1)C(F)(F)F)C(=O)C(=O)NC1CC1`, the GI50 was > 100 µM and the TGI was > 100 µM.
For `COc1ccc2c(c1)OCCC1=C2SCC2(C)CCN=C12` (centres undefined), the TGI was > 100 µM.
`O=[As]c1ccc(C(=O)c2ccc(Oc3ccccc3)cc2)cc1` (centres undefined) was tested, and the GI50 was 0.125 µM and the TGI was 0.301 µM.
`c1ccc(CCn2cncn2)cc1` was tested, and the TGI was > 100 µM.
`CC1(C)[C@@H](OC(N)=O)C=C[C@]2(C=O)[C@H]3CC[C@]4(C)[C@@H](c5ccc(=O)oc5)[C@@H](Cl)C[C@]4(O)C3=CC[C@@H]12` was tested, and the GI50 was 0.0058 µM and the TGI was 0.0167 µM.
`COc1ccc2nc3cccc(C(=O)NCCN(C)C)c3nc2c1` showed a TGI of 11.1 µM.
In the case of `COC(=O)C(Cc1nc2ccccc2[nH]c1=O)C(=O)C(=O)Nc1cc(C(F)(F)F)ccc1Cl` (centres undefined), the TGI is reported as 47.8 µM.
For `COP(C)(=O)C(Cc1c[nH]c2ccccc12)NC(=O)OCc1ccccc1` (centres undefined), the TGI was > 100 µM.
Work on `O=P1(c2ccccc2)C2=CCC=CC2C(c2ccccc2)N1Cc1ccccc1` (centres undefined) yielded a TGI of 31.7 µM.
For `COc1ccc(C[C@@H]2OC3(C=CC(=O)C=C3)O[C@H]2Cc2ccc(OC)cc2)cc1`, the TGI was 28.7 µM.
`CN1B(c2ccccc2)N(C)C(=O)N(C)C1=O` was tested, and the TGI was > 100 µM.
For `CC(=O)C1(O)Cc2c(O)c3c(c(O)c2C(OC2CC(N)C(O)C(C)O2)C1)C(=O)c1ccccc1C3=O` (centres undefined), the GI50 was 0.163 µM and 0.0786 µM and the TGI was 0.696 µM and 0.66 µM.
Compound `CN(C)c1ccc(/C=c2/c3cc([N+](=O)[O-])ccc3n3c2cc(-c2ccccc2)[n+]3C)cc1` has a TGI of 8.5 µM.
For `COc1ccccc1NS(=O)(=O)c1ccc2ncn(NS(=O)(=O)c3ccc(Cl)cc3)c(=O)c2c1`, the TGI was > 100 µM.
For `O=C(/C(=C/c1ccccc1)c1ccccc1)N1c2ccccc2CC1c1c[nH]c2ccccc12` (centres undefined), the TGI was > 100 µM.
With `COC(=O)C1C2CC3C(OC(=O)C31)C2OC(=O)[C@](OC)(c1ccccc1)C(F)(F)F` (some centres undefined) the TGI was > 100 µM.
With `CCOC(=O)Cc1csc(NC(=O)COC(=O)c2ccc(OC)cc2)n1` the GI50 was > 100 µM and the TGI was > 100 µM.
`C=CCC(CNC(=O)OCc1ccccc1)OC(=O)OCc1ccccc1` (centres undefined) was tested, and the TGI was > 100 µM.
Compound `NCCCC[C@H](N)C(=O)Nc1ccc(-c2nc3ccccc3s2)cc1Cl` has a TGI of 24.9 µM.
`O=C(Nc1ccc(I)cc1F)c1cc(I)ccc1O` was tested, and the GI50 was 1.25 µM.
With `C[N+](C)([O-])CCCNc1ccnc2cccc([N+](=O)[O-])c12` the TGI was > 100 µM.
In the case of `NS(=O)(=O)c1ccc(NC(=O)Nc2ccccc2F)cc1`, the TGI is reported as > 100 µM.
With `NC(N)=NCC(N)C(=O)O` (centres undefined) the TGI was > 100 µM.
In the case of `O=[N+]([O-])c1ccc2ncccc2c1CCc1c([N+](=O)[O-])ccc2ncccc12`, the TGI is reported as > 100 µM.
`O=C(Nc1cc(-c2cccnc2)nc(NCCCN2CCOCC2)n1)c1cc(Br)cc(C(F)(F)F)c1` gave a GI50 of 3.72 µM and a TGI of 15 µM.
For `CC[C@H](C)C1=C(OC(C)=O)[N@+]2([O-])Oc3ccc(-c4c(OC(C)=O)c(OC(C)=O)c(-c5ccc(OC(C)=O)cc5)c(OC(C)=O)c4OC(C)=O)cc3O[C@]2([C@@H](C)CC)C(=O)N1OC(C)=O`, the TGI was > 50 µM.
For `CCCCCc1c(C)[nH]c(/C=C2\N=C(c3ccc[nH]3)C=C2OCc2ccccc2)c1C`, the GI50 was 0.0817 µM and 0.0533 µM and the TGI was 3.96 µM and 2.22 µM.
In the case of `OC(c1ccccc1)(c1cccnc1)C(O)(c1ccccc1)c1cccnc1` (centres undefined), the TGI is reported as > 100 µM.
